In the supplement of paper PMC3334620:
In all, about 33,000 sequences were measured (“E-score (-0.5 to 0.5)”: median about -0.041, highest 2% from about 0.37 on). The list shows a part of the results.

These sequences were tested against T1, Ecm22 (UniProt Q05958) (assay: PBM E-score (8-mer binding enrichment) (E-score (-0.5 to 0.5)); higher = stronger / more preferred TF binding; most listed sequences are background and not binding sites). Settings: protein concentration: 200 nM; construct: GST-full length.
T1 sequence: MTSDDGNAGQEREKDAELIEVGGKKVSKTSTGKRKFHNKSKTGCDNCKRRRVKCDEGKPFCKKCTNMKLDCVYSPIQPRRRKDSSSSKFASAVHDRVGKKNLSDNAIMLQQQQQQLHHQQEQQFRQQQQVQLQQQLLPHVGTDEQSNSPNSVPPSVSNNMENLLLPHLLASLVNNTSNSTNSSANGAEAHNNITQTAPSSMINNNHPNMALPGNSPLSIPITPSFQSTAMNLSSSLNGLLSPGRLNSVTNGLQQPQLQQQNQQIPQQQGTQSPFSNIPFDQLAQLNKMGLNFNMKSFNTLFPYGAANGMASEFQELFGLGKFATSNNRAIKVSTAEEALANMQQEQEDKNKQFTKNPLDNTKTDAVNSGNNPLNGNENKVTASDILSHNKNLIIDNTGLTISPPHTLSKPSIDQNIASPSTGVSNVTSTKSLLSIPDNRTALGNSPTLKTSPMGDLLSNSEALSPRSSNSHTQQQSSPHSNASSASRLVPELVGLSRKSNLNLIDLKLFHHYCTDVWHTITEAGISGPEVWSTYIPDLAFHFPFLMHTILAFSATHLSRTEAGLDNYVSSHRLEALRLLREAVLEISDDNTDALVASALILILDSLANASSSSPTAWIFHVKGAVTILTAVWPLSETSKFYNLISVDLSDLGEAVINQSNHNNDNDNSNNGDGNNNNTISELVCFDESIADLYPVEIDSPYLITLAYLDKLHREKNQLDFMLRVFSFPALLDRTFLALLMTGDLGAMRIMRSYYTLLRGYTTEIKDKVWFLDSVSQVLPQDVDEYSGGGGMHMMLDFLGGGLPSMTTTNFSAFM
Method in brief: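 PURExpress in vitro transcription/translation supplied GST-tagged yeast transcription factors, either full-length or DNA-binding domain. Applied at about 100-200 nM to universal all-10-mer Agilent arrays double-stranded by primer extension, the bound protein was detected with fluorescent anti-GST. E-scores, modified Wilcoxon-Mann-Whitney statistics, were given by the Universal PBM Analysis Suite to ungapped eight-base words pooled with their reverse complements after masliner normalisation.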

| Sequence | PBM E-score |
| --- | --- |
| GAAACAAA | -0.0214 |
| CTAGCTAG | -0.192 |
| CGATGCGA | 0.272 |
| AGGTGGAG | -0.362 |
| CAGGCATC | -0.102 |
| CCAAAAGC | -0.151 |
| AGCATACC | -0.0196 |
| AGGATTAT | -0.0588 |
| ACAACTCG | 0.259 |
| ATCGAACC | 0.0684 |
| ACAGTACC | -0.136 |
| CGGATGGA | 0.083 |
| GCCTTATA | -0.00121 |
| AATGATCT | -0.00115 |
| AATATGTG | 0.0912 |
| CCTTATAA | -0.116 |
| CGTCAAAG | 0.0161 |
| TCAGCGGA | 0.0271 |
| CGAAAACG | 0.24 |
| CATTCATC | -0.193 |
| GTGTGGGA | -0.0804 |
| AGCATGAG | -0.145 |

| Sequence | PBM E-score |
| --- | --- |
| CGTTTCAG | 0.189 |
| CATTTACC | -0.0682 |
| CACAGTCA | -0.133 |
| ACGTACCC | 0.295 |
| CCGCGAAA | -0.0377 |
| ACTTAATA | -0.0103 |
| AGCCGTGC | -0.144 |
| CAAAGCTA | 0.00269 |
| ACGCCAAA | 0.0175 |
| GGATTGAC | -0.064 |
| GTCGTACA | 0.484 |
| CCACACGG | -0.029 |
| ATGCGGAA | 0.164 |
| AACACTAC | 0.0419 |
| GAGATTTA | -0.0844 |
| CGGCACAG | 0.0624 |
| CACTATGC | 0.0833 |
| AGAATCGC | 0.114 |
| GACGATAA | 0.0921 |
| CTTAATGA | 0.0476 |
| AAATTTAT | 0.159 |
| CCGACTAG | -0.0411 |

| Sequence | PBM E-score |
| --- | --- |
| AGCGGCAT | 0.0603 |
| GCATTTCC | -0.0374 |
| GTCCAGGA | -0.0186 |
| TTCACCAA | -0.0582 |
| AGTATCAC | 0.00643 |
| AATCACGG | -0.0233 |
| GATCTTCC | -0.0798 |
| AGAAGCCA | -0.0549 |
| ATGAGGAG | -0.229 |
| CCCGTCAC | -0.12 |
| ATCGATGC | 0.114 |
| ATTGCATA | -0.0382 |
| ATGATGCA | 0.118 |
| CCGCAGAG | -0.28 |
| AACACGAG | 0.234 |
| ACTGATAT | 0.0513 |
| AGCTAACC | -0.0463 |
| AAGCATGG | -0.307 |
| ACACAAAT | 0.135 |
| CAACACTG | -0.03 |
| CGCTACCC | -0.132 |
| AAACTGCC | 0.167 |

| Sequence | PBM E-score |
| --- | --- |
| CGGCGATA | 0.134 |
| AGTACAAA | 0.0199 |
| CGTTCAGA | 0.325 |
| CGATAACA | 0.0212 |
| ATATAGCA | 0.0374 |
| GCTACACC | -0.189 |
| ACACGCGG | 0.05 |
| CAAACCAA | 0.0423 |
| ACATGTAG | -0.112 |
| GCCTGGAA | -0.251 |
| GATCGGAC | 0.0968 |
| AGGTGGTC | -0.226 |
| ATATGCAC | 0.117 |
| GTTACCCA | -0.00473 |
| AAGTATCA | -0.115 |
| ATCGTTGG | -0.0634 |
| AAGATTAC | -0.063 |
| GCGATAGA | 0.168 |
| ACCTGAGG | -0.194 |
| GCTAATAC | 0.0118 |
